{"source": "patent US20220389066A1", "about": "“POLYPEPTIDES” (Affibody AB, priority 2019, published 2022)", "key": {"GST-boxA(red)": {"molecular_target": "T1, GST-boxA(red) (Homo sapiens, UniProt P09429)", "T1 construct": "purchased HMGBiotech Srl, Milano, Italy", "T1 sequence (P09429 with tags, fused parts or gaps)": "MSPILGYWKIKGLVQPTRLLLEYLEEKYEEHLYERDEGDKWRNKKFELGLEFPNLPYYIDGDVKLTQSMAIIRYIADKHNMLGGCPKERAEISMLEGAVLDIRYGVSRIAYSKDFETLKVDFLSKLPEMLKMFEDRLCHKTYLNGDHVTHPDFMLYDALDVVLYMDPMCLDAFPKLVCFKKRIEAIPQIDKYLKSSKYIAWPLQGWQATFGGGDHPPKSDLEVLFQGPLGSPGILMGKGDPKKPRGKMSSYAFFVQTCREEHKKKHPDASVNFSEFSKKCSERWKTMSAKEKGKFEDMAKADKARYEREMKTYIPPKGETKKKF", "experiment": "Biacore binding analysis of mutated Z variants, immobilized GST-boxA(red)", "conditions": "His6-tagged Z variant as analyte; HBS-EP + 2 mM DTT; 1:1 model", "method": "(§1) Binding analysis of mutated Z variants: A binding analysis was performed using a Biacore 2000 instrument. All alanine mutated Z variants, together with the original Z variant ZH 01, were analyzed against GST-boxA(red), HMGB1(red), boxA(disulfide) and HMGB1(disulfide). The immobilizations and Biacore analyses were performed essentially as described in Example 3. However, in these analyses, the different targets were directly coupled to separate flow cells of different CM5 chip surfaces and a flow rate of 30 μl/min was used. The ligand immobilization levels on the surfaces were 1410 RU for GST-boxA(red), 1380 RU for HMGB1(red), 540 RU for boxA(disulfide) and 2900 RU for HMGB1(disulfide). The analytes, i.e. the Z variants, were each diluted in HBS-EP buffer (or in HBS-EP+2 mM DTT for use in analysis with reduced targets GST-boxA(red) and HMGB1(red)), within a concentration range of 50 to 1350 nM and injected for 3 min, followed by dissociation in running buffer for 35 min. No regeneration buffer was used in the analyses. Instead, the dissociation time was enough for all binders to dissociate from the chip surfaces. HBS-EP was used as running buffer for targets boxA(disulfide) and HMGB1(disulfide) while HBS-EP+2 mM DTT was used for reduced targets GST-boxA(red) and HMGB1(red). The dissociation constants were calculated as in Example 3."}, "b-boxA(disulfide)": {"molecular_target": "T2, b-boxA(disulfide) (Homo sapiens, UniProt P09429)", "T2 construct": "purchased HMGBiotech Srl, Milano, Italy", "T2 sequence (P09429 1-89)": "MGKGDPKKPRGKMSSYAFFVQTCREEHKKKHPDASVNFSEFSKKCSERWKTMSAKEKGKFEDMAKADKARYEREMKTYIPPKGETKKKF", "experiment": "ELISA screening against the disulfide form of A-box", "type": "binding", "conditions": "target concentration 1000 nM; at least 3× the blank control", "method": "(§2) ELISA screening of Z variants against reduced A-box and B-box: The binding of Z variants to HMGB1 was analyzed in ELISA assays. Half-area 96-well ELISA plates (Greiner, cat. no. 675061) were coated at 4° C. overnight with 2 μg/ml of an anti-ABD goat antibody (produced in-house) diluted in coating buffer (50 mM sodium carbonate, pH 9.6; Sigma, cat. no. C3041). The antibody solution was poured off and the wells were washed in water and blocked with 100 μl of PBSC (PBS supplemented with 0.5% casein; Sigma, cat. no. C8654) for 1-3 h at RT. The blocking solution was discarded and 50 μl periplasmic solutions, diluted 1:16 with PBST 0.05%, were added to the wells and incubated for 1.5 to 2.5 h at RT under slow agitation. As a negative control, periplasmic ABD was added. The supernatants were poured off and the wells were washed 4 times with PBST 0.05%. Then, 50 μl of either b-GST-boxA(red), at a concentration of 2 nM, or b-GST-boxB(red), at a concentration of 100 nM, in PBSC+1-2 mM DTT, was added to each well of A-box binding Z-variants or B-box binding Z-variant, respectively. The plates were incubated for 1 h at RT followed by washes as described above. Streptavidin conjugated HRP (Thermo Scientific, cat. no. N100) diluted 1:30,000 in PBSC+1-2 mM DTT, was added to the wells and the plates were incubated for approximately 45 min. After washing as described above, 50 μl ImmunoPure TMB substrate (Thermo Scientific, cat. no. 34021) was added to the wells and the plates were treated according to the manufacturer's recommendations. The absorbance at 450 nm was measured using a multi-well plate reader, Victor3 (Perkin Elmer).\n(§3) ELISA screening of Z variants against the disulfide form of A-box and against HMGB1: To find out if selected A-box binding Z variants could also bind the disulfide form of HMGB1, A-box binding variants were screened in the same setup as described above against b-boxA(disulfide) at a concentration of 1000 nM and b-HMGB1(disulfide) at a concentration of 100 nM in PBSC.)."}, "b-HMGB1(disulfide)": {"molecular_target": "T3, b-HMGB1(disulfide) (Rattus norvegicus, UniProt P63159)", "T3 construct": "purchased HMGBiotech Srl, Milano, Italy", "T3 sequence (P63159 1-215)": "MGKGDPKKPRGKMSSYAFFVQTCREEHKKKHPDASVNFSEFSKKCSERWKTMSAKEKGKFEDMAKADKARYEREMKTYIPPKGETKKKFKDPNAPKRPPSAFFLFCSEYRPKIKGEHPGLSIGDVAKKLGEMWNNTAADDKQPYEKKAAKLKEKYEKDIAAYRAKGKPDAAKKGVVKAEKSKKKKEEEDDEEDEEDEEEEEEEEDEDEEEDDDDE", "experiment": "ELISA screening against HMGB1(disulfide)", "type": "binding", "conditions": "target concentration 100 nM; at least 3× the blank control", "method": "as §2, §3"}, "b-GST-boxA(red)": {"molecular_target": "T4, b-GST-boxA(red) (Homo sapiens, UniProt P09429)", "T4 construct": "purchased HMGBiotech Srl, Milano, Italy", "T4 sequence (P09429 with tags, fused parts or gaps)": "as the sequence (P09429 with tags, fused parts or gaps) above", "experiment": "ELISA screening of Z variants against reduced A-box", "type": "binding", "conditions": "target concentration 2 nM; periplasmic Z-ABD fusion; at least 3× the blank control", "method": "as §2"}, "HMGB1(disulfide)": {"molecular_target": "T5, HMGB1(disulfide) (Rattus norvegicus, UniProt P63159)", "T5 construct": "purchased HMGBiotech Srl, Milano, Italy", "T5 sequence (P63159 1-215)": "T3 sequence (P63159 1-215)", "experiment": "Biacore binding analysis of mutated Z variants, immobilized HMGB1(disulfide)", "conditions": "His6-tagged Z variant as analyte; HBS-EP; 1:1 model", "method": "as §1"}, "boxA(disulfide)": {"molecular_target": "T6, boxA(disulfide) (Homo sapiens, UniProt P09429)", "T6 construct": "purchased HMGBiotech Srl, Milano, Italy", "T6 sequence (P09429 1-89)": "T2 sequence (P09429 1-89)", "experiment": "Biacore binding analysis of mutated Z variants, immobilized boxA(disulfide)", "conditions": "His6-tagged Z variant as analyte; HBS-EP; 1:1 model", "method": "as §1"}, "[1]": {"experiment": "Circular dichroism (CD) spectroscopy, variable temperature measurement", "type": "physicochemical", "conditions": "His6-tagged Z variants; CD at 221 nm, 20 to 80-90° C.", "method": "Circular dichroism (CD) spectroscopy analysis: The His6-Z variants produced in Example 2 were diluted to 25 μM in PBS or H2O. A CD spectrum at 250-195 nm was obtained at 20° C. In addition, a variable temperature measurement (VTM) was performed to determine the melting temperature (Tm). In the VTM, absorbance was measured at 221 nm while the temperature was raised from 20° C. to 80° C. (in some cases to 90° C.), with a temperature slope of 5° C./min. A new CD spectrum was obtained at 20° C. after the heating procedure, in order to study the refolding ability of the Z variants. The CD measurements were performed on a Jasco J-810 spectropolarimeter (Jasco Scandinavia AB) using a cell with an optical path length of 1 mm.\nCircular dichroism (CD) spectroscopy analysis: The measurements were performed essentially as described in Example 3."}}, "data": [{"substance": "ZH01: HMGB1 A-box binding Z variant, 58 amino acid residues, from primary phage display selection (VDAKYAKEDWDAFWEIIWLPNLTDAQQRAFIYKLEDDPSQSSELLSEAKKLNDSQAPK; Engineered HMGB1 binding polypeptide)", "values": [{"measurement": "Kd", "setting": "GST-boxA(red)", "result": 25, "unit": "nM"}, {"measurement": "ELISA response against b-boxA(disulfide)", "setting": "b-boxA(disulfide)", "result": 3.06, "unit": "AU"}, {"measurement": "ELISA response against b-HMGB1(disulfide)", "setting": "b-HMGB1(disulfide)", "result": 3.07, "unit": "AU"}, {"measurement": "average ELISA response against b-GST-boxA(red)", "setting": "b-GST-boxA(red)", "result": 0.7, "unit": "AU"}, {"measurement": "Kd", "setting": "HMGB1(disulfide)", "result": 170, "unit": "nM"}, {"measurement": "Kd", "setting": "boxA(disulfide)", "result": 380, "unit": "nM"}, {"measurement": "Tm (° C.)", "setting": "[1]", "result": 49, "unit": "°C"}]}]}
